{
  "source": "the supplement of paper PMC12217912",
  "parents": {"B1": {"name": "TEV protease; numbered along this chain (parent)", "chain": "MGESLFKGPRDYNPISSSICHLTNESDGHTTSLYGIGFGPFIITNKHLFRRNNGTLVVQSLHGVFKVKDTTTLQQHLVDGRDMIIIRMPKDFPPFPQKLKFREPQREERICLVTTNFQTKSMSSMVSDTSCTFPSGDGIFWKHWIQTKDGQCGSPLVSTRDGFIVGIHSASNFTNTNNYFTSVPKNFMELLTNQEAQQWVSGWRLNADSVLWGGHKVFMVKPEEPFQPVKEATQL"}},
  "variants_of": "B1",
  "assay": "raw area under fraction-flipped curve 0-4 h after induction (AUC4h, not background-subtracted), DNA-recorder readout of cleavage of the substrate (dimensionless); higher = more cleavage of the substrate by the protease variant",
  "conditions": "temperature: 34 °C; time window: 0-4 h after rhamnose induction",
  "protocol": "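In vivo DNA recorder in E. coli TOP10(DE3) ΔrhaA at 34 °C. Each TEVp single-site mutant (parent TEVp 0) is paired with a single-site variant of the 7-mer TEVs (canonical ENLYFQ|S). The substrate sits between flexible linkers in a Bxb1-sfGFP-TEVs-SsrA fusion, so cleavage stabilises Bxb1 and speeds flipping of a recombination array, read by NGS. The value is the raw area under the fraction-flipped curve over 0-4 h after rhamnose induction (AUC4h), with ≥20 reads per time point. It is not background-subtracted; inactive controls average about 0.047.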",
  "note": "Some of the results follow. The full chains were built here from the parent and the listed change. Inactive controls read about 0.05.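 Further: Bxb1 expression induced with 0.2% (w/v) L-rhamnose at OD600 near 0.5, cultures sampled hourly, flipped fraction per protease–substrate barcode pair counted by paired-end Illumina sequencing.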",
  "data": [
    {"variant": "MGESLFKGPRDYNPISSSICHLTNESDGHTTSLYGIGFGPFIITNKHLFRRNNGTLVVQSLHGVFKVKDTTTLQQHLVDGRDMIIIRMPKDFPPFPQKLKFREPQREERICLVTTNFQTKSMSSMVSDTSCTFPSGDGIFWKHWIQTKDGQCGSPLVSTRDGFIVGIHSAPNFTNTNNYFTSVPKNFMELLTNQEAQQWVSGWRLNADSVLWGGHKVFMVKPEEPFQPVKEATQL", "note": "[S171P]", "values": [
      {"measurement": "area with substrate ENLYFQC", "value": 0.0531},
      {"measurement": "area with substrate ENLYFQG", "value": 0.0601},
      {"measurement": "area with substrate ENLYFQH", "value": 0.0622},
      {"measurement": "area with substrate ENLYFQI", "value": 0.0482},
      {"measurement": "area with substrate ENLYFQK", "value": 0.0543},
      {"measurement": "area with substrate ENLYFQL", "value": 0.0536},
      {"measurement": "area with substrate ENLYFQM", "value": 0.0617},
      {"measurement": "area with substrate ENLYFQP", "value": 0.053},
      {"measurement": "area with substrate ENLYFQQ", "value": 0.0636},
      {"measurement": "area with substrate ENLYFQR", "value": 0.0619},
      {"measurement": "area with substrate ENLYFQS", "value": 0.0593},
      {"measurement": "area with substrate ENLYFQT", "value": 0.0422},
      {"measurement": "area with substrate ENLYFQY", "value": 0.0633}
    ]},
    {"variant": "MGESLFKGPRDYNPISSSICHLTNESDGHTTSLYGIGFGPFIITNKHLFRRNNGTLVVQSLHGVFKVKDTTTLQQHLVDGRDMIIIRMPKDFPPFPQKLKFREPQREERICLVTTNFQTKSMSSMVSDTSCTFPSGDGIFWKHWIQTKDGQCGSPLVSTRDGFIVGIHSASNFTNTNNYFTSVPKNFMELLTNQEAQQWVSGWRLNADSVLWGGHKVFMVKPEEPFNPVKEATQL", "note": "[Q227N]", "values": [
      {"measurement": "area with substrate ENLYFQC", "value": 0.0806},
      {"measurement": "area with substrate ENLYFQF", "value": 0.0874},
      {"measurement": "area with substrate ENLYFQG", "value": 0.112},
      {"measurement": "area with substrate ENLYFQH", "value": 0.0683},
      {"measurement": "area with substrate ENLYFQI", "value": 0.0566},
      {"measurement": "area with substrate ENLYFQK", "value": 0.0744},
      {"measurement": "area with substrate ENLYFQL", "value": 0.0641},
      {"measurement": "area with substrate ENLYFQM", "value": 0.0805},
      {"measurement": "area with substrate ENLYFQR", "value": 0.0594},
      {"measurement": "area with substrate ENLYFQS", "value": 0.11},
      {"measurement": "area with substrate ENLYFQT", "value": 0.0738}
    ]},
    {"variant": "MGESLFKGPRDYNPISSSICHLTNESDGHTTSLYGIGFGPFIITNKHLFRRNNGTLVVQSLHGVFKVKDTTTLQQHLVDGRDMIIIRMPKDFPPFPQKLKFREPQREERICLVTTNFQTKSMSSMVSDTSCTFPSGDGIFWKHWIQTKDGQCGSPLVSTRDGFIVGIHSASNFTNTNNYFTSVPKNFMRLLTNQEAQQWVSGWRLNADSVLWGGHKVFMVKPEEPFQPVKEATQL", "note": "[E189R]", "values": [
      {"measurement": "area with substrate ENLYFQC", "value": 0.0955},
      {"measurement": "area with substrate ENLYFQE", "value": 0.0425},
      {"measurement": "area with substrate ENLYFQG", "value": 0.0804},
      {"measurement": "area with substrate ENLYFQK", "value": 0.0669},
      {"measurement": "area with substrate ENLYFQL", "value": 0.0601},
      {"measurement": "area with substrate ENLYFQP", "value": 0.0516},
      {"measurement": "area with substrate ENLYFQQ", "value": 0.0702},
      {"measurement": "area with substrate ENLYFQR", "value": 0.0579},
      {"measurement": "area with substrate ENLYFQS", "value": 0.095},
      {"measurement": "area with substrate ENLYFQT", "value": 0.0629},
      {"measurement": "area with substrate ENLYFQV", "value": 0.0762},
      {"measurement": "area with substrate ENLYFQW", "value": 0.0642},
      {"measurement": "area with substrate ENLYFQY", "value": 0.0698}
    ]},
    {"variant": "MGESLFKGPRDYNPISSSICHLTNESDGHTTSLYGIGFGPFIITNKHLFRRNNGTLVVQSLHGVFKVKDTTTLQQHLVDGRDMIIIRMPKDFPPFPQKLKFREPQREERICLVTTNFQTKSMSSMVSDTSCTFPSGDGIFWKHWIQTKDGQCGSPLVSTRDGFIVGIHSASNFTNTNNYFTSVPKNFMELLTNQEAEQWVSGWRLNADSVLWGGHKVFMVKPEEPFQPVKEATQL", "note": "[Q197E]", "values": [
      {"measurement": "area with substrate ENLYFQC", "value": 0.119},
      {"measurement": "area with substrate ENLYFQF", "value": 0.0585},
      {"measurement": "area with substrate ENLYFQG", "value": 0.0765},
      {"measurement": "area with substrate ENLYFQK", "value": 0.0602},
      {"measurement": "area with substrate ENLYFQL", "value": 0.0586},
      {"measurement": "area with substrate ENLYFQM", "value": 0.0918},
      {"measurement": "area with substrate ENLYFQN", "value": 0.0577},
      {"measurement": "area with substrate ENLYFQP", "value": 0.0516},
      {"measurement": "area with substrate ENLYFQS", "value": 0.0872},
      {"measurement": "area with substrate ENLYFQT", "value": 0.0618},
      {"measurement": "area with substrate ENLYFQV", "value": 0.0511},
      {"measurement": "area with substrate ENLYFQW", "value": 0.0354},
      {"measurement": "area with substrate ENLYFQY", "value": 0.0669}
    ]},
    {"variant": "MGESLFKGPRDYNPISSSICHLTNESDGHTTSLYGIGFGPFIITNKHLFRRNNGTLVVQSLHGVFKVKDYTTLQQHLVDGRDMIIIRMPKDFPPFPQKLKFREPQREERICLVTTNFQTKSMSSMVSDTSCTFPSGDGIFWKHWIQTKDGQCGSPLVSTRDGFIVGIHSASNFTNTNNYFTSVPKNFMELLTNQEAQQWVSGWRLNADSVLWGGHKVFMVKPEEPFQPVKEATQL", "note": "[T70Y]", "values": [
      {"measurement": "area with substrate ENLYFQC", "value": 0.0657},
      {"measurement": "area with substrate ENLYFQE", "value": 0.0452},
      {"measurement": "area with substrate ENLYFQF", "value": 0.0652},
      {"measurement": "area with substrate ENLYFQG", "value": 0.068},
      {"measurement": "area with substrate ENLYFQH", "value": 0.0538},
      {"measurement": "area with substrate ENLYFQI", "value": 0.0591},
      {"measurement": "area with substrate ENLYFQK", "value": 0.0521},
      {"measurement": "area with substrate ENLYFQL", "value": 0.0642},
      {"measurement": "area with substrate ENLYFQM", "value": 0.0706},
      {"measurement": "area with substrate ENLYFQP", "value": 0.061},
      {"measurement": "area with substrate ENLYFQQ", "value": 0.0705},
      {"measurement": "area with substrate ENLYFQR", "value": 0.0572},
      {"measurement": "area with substrate ENLYFQS", "value": 0.0746},
      {"measurement": "area with substrate ENLYFQT", "value": 0.0643},
      {"measurement": "area with substrate ENLYFQV", "value": 0.0576}
    ]},
    {"variant": "MGISLFKGPRDYNPISSSICHLTNESDGHTTSLYGIGFGPFIITNKHLFRRNNGTLVVQSLHGVFKVKDTTTLQQHLVDGRDMIIIRMPKDFPPFPQKLKFREPQREERICLVTTNFQTKSMSSMVSDTSCTFPSGDGIFWKHWIQTKDGQCGSPLVSTRDGFIVGIHSASNFTNTNNYFTSVPKNFMELLTNQEAQQWVSGWRLNADSVLWGGHKVFMVKPEEPFQPVKEATQL", "note": "[E3I]", "values": [
      {"measurement": "area with substrate ENLYFQC", "value": 0.138},
      {"measurement": "area with substrate ENLYFQD", "value": 0.0622},
      {"measurement": "area with substrate ENLYFQG", "value": 0.119},
      {"measurement": "area with substrate ENLYFQH", "value": 0.0799},
      {"measurement": "area with substrate ENLYFQI", "value": 0.0529},
      {"measurement": "area with substrate ENLYFQK", "value": 0.0595},
      {"measurement": "area with substrate ENLYFQL", "value": 0.0622},
      {"measurement": "area with substrate ENLYFQM", "value": 0.106},
      {"measurement": "area with substrate ENLYFQP", "value": 0.0643},
      {"measurement": "area with substrate ENLYFQR", "value": 0.0575},
      {"measurement": "area with substrate ENLYFQS", "value": 0.121},
      {"measurement": "area with substrate ENLYFQW", "value": 0.0873}
    ]},
    {"variant": "MGESLFKGPRDYNPISSSICHLTNESDGHTTSLYGIGFGPFIITNKHLFRRNNGTLVVQSLHGVFKVKDTTTLQQHLVDGRDMIIIRMPKDFPPFPQKLKFREPQREERICLVTTNFQTKSMSSMVSDTSCTFPSGDDIFWKHWIQTKDGQCGSPLVSTRDGFIVGIHSASNFTNTNNYFTSVPKNFMELLTNQEAQQWVSGWRLNADSVLWGGHKVFMVKPEEPFQPVKEATQL", "note": "[G138D]", "values": [
      {"measurement": "area with substrate ENLYFQC", "value": 0.119},
      {"measurement": "area with substrate ENLYFQF", "value": 0.0706},
      {"measurement": "area with substrate ENLYFQG", "value": 0.0592},
      {"measurement": "area with substrate ENLYFQK", "value": 0.0687},
      {"measurement": "area with substrate ENLYFQL", "value": 0.0571},
      {"measurement": "area with substrate ENLYFQR", "value": 0.063},
      {"measurement": "area with substrate ENLYFQS", "value": 0.0908},
      {"measurement": "area with substrate ENLYFQT", "value": 0.0535},
      {"measurement": "area with substrate ENLYFQW", "value": 0.0562}
    ]},
    {"variant": "MGESLFKGPRDYNPISSSICHLTNESDGHTTSLYGIGFGPFIITNKHLFRRNNGTLVVQSLHGVFKVKDTTTLQQHLVDGRDMIIIRMPKDFPPFPQKLKFREPQREERICLVTTNFQTKSMSSMVSDTSCTFPSGDGIFWKHWIQTKDGQCGSPLVSTRDGFIVGIHSASYFTNTNNYFTSVPKNFMELLTNQEAQQWVSGWRLNADSVLWGGHKVFMVKPEEPFQPVKEATQL", "note": "[N172Y]", "values": [
      {"measurement": "area with substrate ENLYFQC", "value": 0.0534},
      {"measurement": "area with substrate ENLYFQH", "value": 0.0531},
      {"measurement": "area with substrate ENLYFQN", "value": 0.0687},
      {"measurement": "area with substrate ENLYFQS", "value": 0.0601},
      {"measurement": "area with substrate ENLYFQT", "value": 0.0728},
      {"measurement": "area with substrate ENLYFQW", "value": 0.0588}
    ]}
  ]
}
